According to PubChem BioAssay AID686971 (National Center for Advancing Translational Sciences (NCATS), 2013):
In all, about 360,000 compounds went through this assay and about 7,500 (2.1%) were called active. This list was built around the results that the source calls inconclusive (neither active nor inactive); the mix of calls is not that of the screen. Calls come from the whole dose curve; as a rule, active = well fitted cell-killing curve with a large enough effect; inconclusive = small, poorly fitted or top-dose-only effect, or effect the other way, or another doubt; inactive = no such curve, though single readings can be large or run the other way. Potencies of inconclusive entries are left out as doubtful fits.

Test: qHTS for induction of synthetic lethality in tumor cells producing 2HG: qHTS for the HT-1080-IDH1KD cell line;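 for activity, negative = toxicity: 0% = DMSO wells and -100% = cell-free medium wells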
Details: HT-1080 IDH1 knockdown viability, ATP luminescence, 48 h; activity, negative = toxicity: at 46.1 µM (top of the series) unless noted
Summary of the method: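 After a 2 h attachment period, IDH1KD HT-1080 cells took pin-transferred compound for 48 h at 37 °C; ATP-based luminescence after 10 min room-temperature reagent incubation reported viability.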
Potency is the fitted concentration of half-maximal effect; tags give direction and shape of the fitted curve.

| SMILES | Potency | activity, negative = toxicity |
| --- | --- | --- |
| CCC(NC(=S)NCc1ccc(F)cc1)c1ccc(C)cc1 (configuration not stated) | inconclusive [cytotoxic, partial curve] | – |
| COc1cc(OC)c(OC)cc1CCC(C)NC(=O)Cc1ccccc1 (configuration not stated) | – | inactive: -2.72% |
| COc1ccc(S(=O)(=O)N2CCC(C(=O)NCCc3ccccc3)CC2)cc1OC | inconclusive [cytotoxic, single point] | – |
| O=C1/C(=C\c2cc(Cl)c(O)c(Cl)c2)SC(=S)N1Cc1ccccc1 | inconclusive [cytotoxic, full curve] | – |
| NC(=O)c1cccc(-c2coc3c(C(=O)NC4CCCCC4)cccc23)c1 | inconclusive [cytotoxic, partial curve, poor fit] | – |
| C/C(=N\NC(=O)c1ccc(C)cc1)C1C(=O)c2ccccc2C1=O | inconclusive [cytotoxic, single point] | – |
| CC(C)(C)NC(=O)C(c1ccco1)N(Cc1ccc(F)cc1)C(=O)c1snc(C(N)=O)c1N (configuration not stated) | – | inactive: 1.74% |
| O=C(Cc1cccc2ccccc12)N/N=C1\CCCc2ccccc21 | – | inactive: -22.1% |
| O=C(CCCn1c(=O)c2cccn2c2cccnc21)N1CCN(c2ccccc2F)CC1 | inconclusive [rising, single point] | – |
| COc1ccc(N2CCN(c3ccc4nnc(CCC(=O)Nc5ccc(C)cc5)n4n3)CC2)cc1 | – | inactive: -0.0191% |
| CCOC(=O)N1CCC(NC(=O)C2CCCN(Cc3nc(-c4cccc(C)c4)oc3C)C2)CC1 (configuration not stated) | inconclusive [cytotoxic, full curve] | – |
| COc1cc2c(cc1OC)C(c1cccc([N+](=O)[O-])c1)N(C(=O)c1ccc(F)cc1)CC2 (configuration not stated) | inconclusive [cytotoxic, partial curve] | – |
| O=C(NC1CCCCC1)c1csnn1 | – | inconclusive: 31.2% |
| Cc1cc(C(=O)CSc2nnc(-c3ccc(F)cc3)o2)c(C)n1CC1COc2ccccc2O1 (configuration not stated) | inconclusive [cytotoxic, single point] | – |
| CSc1nc(N)nc(SCCS(=O)(=O)c2ccc(Cl)cc2)c1C#N | active: 11.2 µM | – |
| COc1ccccc1N(C(=O)c1snc(C(N)=O)c1N)C(C(=O)NC1CCCC1)c1ccco1 (configuration not stated) | – | inactive: -5.91% |
| COc1ccccc1OCCN1CSC(=S)N(C)C1 | active: 7.31 µM | – |
| CCOC(=O)C1=C(C)Nc2ccccc2N=C1NC(=O)Cc1ccc(OC)cc1 | – | inactive: 5.14% |
| COC(=O)c1ccc(NC(=O)c2ccccc2NS(=O)(=O)c2ccccc2)cc1 | active: 11.2 µM | – |
| Cc1ccc(-n2cc(C(=O)c3cc(Cl)ccc3O)cc(C#N)c2=O)cc1 | – | inactive: -0.578% |
| CCN1CCN(CC(=O)Nc2nc3ccccc3s2)CC1 | – | inactive: 10.3% |
| COc1ccc(-n2c(C)cc(/C=C3\C(=N)N4N=C(CC(=O)N5CCOCC5)SC4=NC3=O)c2C)c(OC)c1 | inconclusive [cytotoxic, partial curve] | – |
| COc1cc2ccccc2cc1C(=O)Nc1ccc(CN2CCOCC2)cc1 | inconclusive [cytotoxic, single point] | – |
| Cc1ccc(SC2=C(N(C)C)C(=O)c3ccccc3C2=O)cc1 | inconclusive [cytotoxic, single point] | – |

| SMILES | Potency | activity, negative = toxicity |
| --- | --- | --- |
| CCOC(=O)c1ccc(NC(=O)Cn2ncc(Cl)c(Cl)c2=O)cc1 | active: 4.61 µM | – |
| COc1ccc(NC(=O)CN2CCC(C)CC2)c([N+](=O)[O-])c1 | – | inactive: 6.48% |
| CSc1ccc(/C=C/C(=O)c2ccc(NC(=O)Cc3ccccc3)cc2)cc1 | active: 15.8 µM | – |
| Cc1ccc(-n2cnc3sc(C)c(C)c3c2=O)cc1 | inconclusive [rising, partial curve] | – |
| CCc1ccc(Nc2ncnc3nc[nH]c23)cc1 | – | inactive: 0.217% |
| C/C(=C\C(=O)c1ccc(Cl)cc1Cl)N(C)C | – | inactive: 0.0852% |
| O=S(=O)(Nc1ccc(-c2ccc(NS(=O)(=O)c3ccccc3)cc2)cc1)c1ccccc1 | inconclusive [cytotoxic, partial curve] | – |
| COc1ccc2sc(N(CCCN(C)C)C(=O)c3ccc(S(=O)(=O)N4CCCC4)cc3)nc2c1 | – | inactive: -4.81% |
| COC(=O)c1cc(=O)n(CCc2ccccc2F)c(=Nc2ccc(F)c(Cl)c2)s1 | active: 18.4 µM | – |
| COc1ccc(Cl)cc1S(=O)(=O)NCc1ccncc1 | – | inactive: -0.768% |
| CCOC(=O)c1c(NC(=O)CN2C(=O)NC3(CCCCCC3)C2=O)sc(C)c1-c1ccc(C)cc1 | – | inconclusive: -32.5% [cytotoxic] |
| CCCCn1nnnc1C(c1cc2ccccc2o1)N1CCN(C/C=C/c2ccccc2)CC1 (configuration not stated) | inconclusive [cytotoxic, single point] | – |
| OCCCNc1ncnc2sc(-c3ccccc3)cc12 | inconclusive [cytotoxic, partial curve] | – |
| Cc1ccc(Nc2nc(Nc3ccc(C)cc3)nc(SC3=NCCS3)n2)cc1 | inconclusive [cytotoxic, single point] | – |
| CCC(C)C1Nc2ccc(C(=O)NCCc3ccc(OC)c(OC)c3)cc2NC1=O (configuration not stated) | inconclusive [cytotoxic, single point] | – |
| Cc1ccc(C2C(C#N)=C(N)Oc3n[nH]c(-c4cccs4)c32)cc1 (configuration not stated) | – | inactive: 10.3% |
| CCN(CC)c1ccc(/C=N/NC(=O)CNC(=O)/C=C/c2ccco2)cc1 | inconclusive [cytotoxic, single point] | – |
| Cc1ccc(NC(=O)NC(=O)c2ccccc2)cc1F | inconclusive [rising, partial curve] | – |
| CCOC(=O)C1(Cc2ccc(Cl)cc2)CCN(C(=O)CCc2cnccn2)CC1 | – | inactive: 11% |
| CCN(CC)CC#CCC(C)(c1ccccc1)c1ccccc1 | inconclusive [cytotoxic, single point] | – |
| Cn1c(=O)c2c(nc(NCc3cccnc3)n2Cc2ccc(Cl)cc2)n(C)c1=O | inconclusive [cytotoxic, partial curve] | – |
| CC(=O)Nc1ccc(SCC(=O)c2cc(C)ccc2C)cc1 | inconclusive [cytotoxic, partial curve] | – |
| COCn1c(-c2cccc(Br)c2)nc2ccccc21 | inconclusive [cytotoxic, single point] | – |
| N#CC1=C(N)Oc2cc(N)ccc2C1c1ccccc1Cl (configuration not stated) | – | inactive: -25.3% |

| SMILES | Potency | activity, negative = toxicity |
| --- | --- | --- |
| COc1ccc(Cl)cc1NC(=S)NCc1ccco1 | inconclusive [cytotoxic, single point] | – |
| O=C(CONS(=O)(=O)c1ccc(Cl)cc1)NCCNc1ncc(C(F)(F)F)cc1Cl | inconclusive [cytotoxic, partial curve] | – |
| Cc1ccc(NS(=O)(=O)c2cc(C(=O)NCc3ccccn3)ccc2Cl)cc1C | inconclusive [cytotoxic, single point] | – |
| COC(=O)C1=CO[C@@H](OC2OC(CO)C(O)C(O)C2O)[C@@H]2[C@@H](C)[C@@H](O)C[C@H]12 (some centres not stated) | – | inactive: -0.444% |
| CN(CC(=O)Nc1ccccc1Sc1ccccc1)C1CCCCC1 | – | inconclusive: -30% [cytotoxic] |
| O=C(CCCOc1ccccc1)Nc1ccc(S(=O)(=O)Nc2ccccn2)cc1 | – | inactive: 1.25% |
| O=[N+]([O-])c1cccc(OCCN2CCC(Cc3ccccc3)CC2)c1 | inconclusive [cytotoxic, single point] | – |
| COc1ccc(OCCN2CCC(C(=O)NC(c3ccc(Cl)cc3)c3cccnc3)CC2)cc1 (configuration not stated) | active: 20.6 µM | – |
| COc1ccc(C2c3[nH]c4ccccc4c3CCN2C(=O)c2ccc(=O)n(C)n2)c(F)c1 (configuration not stated) | inconclusive [cytotoxic, partial curve] | – |
| CN(CCc1ccccc1)C(=O)c1ccc(NC(=O)Cc2ccc(NC(=O)C3CCN(C(=O)CCc4ccccc4)CC3)cc2)cc1 | inconclusive [cytotoxic, single point] | – |
| COC(=O)C1=C(C)N(Cc2ccccc2)C(=NCc2ccc(OC)cc2)N[C@H]1c1ccccc1 | inconclusive [cytotoxic, single point] | – |
| COc1cc(C(=O)Nc2ccc(Cl)c([N+](=O)[O-])c2)cc(OC)c1OC | inconclusive [cytotoxic, single point] | – |
| CN(C)CC(O)CN1C(=O)N(CN2C(=O)N(CC(O)CN(C)C)C(=O)C2(C)C)C(C)(C)C1=O (configuration not stated) | inconclusive [rising, single point] | – |
| O=C(Oc1c(Cl)cc(Cl)c2cccnc12)N1CCOCC1 | – | inactive: -11.6% |
| CC(=O)n1cc(N(C(=O)CCl)c2ccc(Cl)cc2)c2ccccc21 | active: 6.51 µM | – |
| CCOC(=O)N1CC=C2C(C#N)=C(N)C(C#N)(C#N)[C@H](c3ccsc3)[C@H]2C1 | inconclusive [cytotoxic, single point] | – |
| CCc1nc2c(OCc3ccc(F)cc3)cccn2c1N(C)C(=O)COc1ccccc1 | inconclusive [cytotoxic, single point] | – |
| Cc1ccc(C(C(=O)NCc2ccccc2)N(Cc2cccs2)C(=O)c2ccc3c(c2)OCCO3)cc1 (configuration not stated) | inconclusive [cytotoxic, single point] | – |
| O=C(/C(=C/c1cccc(Cl)c1)c1nc2ccccc2[nH]1)c1ccccc1 | active: 3.26 µM | – |
| N=C1CCC(=N)c2c1c(O)c1ccccc1c2O | inconclusive [cytotoxic, partial curve] | – |
| CN(C)CCOCCOc1ccc(Cl)c2ccccc12 | active: 20.6 µM | – |
| COc1ccc(N=Nc2c(C)n[nH]c2C)cc1 | – | inactive: -5.7% |
| CN(CC(=O)NCc1ccc(F)cc1)S(=O)(=O)c1cccc2nsnc12 | – | inactive: 8.72% |
| Cc1ccc(CS(=O)(=O)c2ncc(Cl)c(C(=O)Nc3ccc(OC(F)F)cc3)n2)cc1 | inconclusive [cytotoxic, single point] | – |
